Measured values published in the supplement of paper PMC9151546.
Most values come without repeats; read them as rough.

Experiments:
[1] = system: CHO-K1; assay: micronucleus frequency (% of nucleated events); higher = more micronuclei (genotoxic)
[2] = system: CHO-K1; assay: hypodiploid nuclei frequency (% of nucleated events); higher = more hypodiploid events (aneugenic)
Method: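 Flow-cytometric in vitro micronucleus assay (Litron MicroFlow) in CHO-K1 cells in 96-well plates, 19 concentrations (4.5-200 µM, n=1 per concentration). Without S9, cells were exposed for 24 h and sampled at 48 h. With Aroclor 1254-induced rat liver S9, cells were exposed for 3-4 h and sampled at 27-28 h. Read-outs are %MN and %hypodiploid nuclei relative to nucleated events, and relative survival as the nuclei-to-bead ratio versus the 1% DMSO vehicle control (x100).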
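Throughout, for hypodiploid nuclei frequency (% of nucleated events): hypodiploid nuclei gated on a flow cytometer with 488 nm excitation after SYTOX Green staining, cultures at 37 °C, positive controls vinblastine without S9 and cyclophosphamide with S9.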
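Throughout, for micronucleus frequency (% of nucleated events): cells lysed with nuclei stained by SYTOX Green, then micronucleus-gated events counted against nucleated events by flow cytometry with 488 nm excitation.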

ClC1=C(Cl)C2(Cl)C3C(Cl)C(Cl)CC3C1(Cl)C2(Cl)Cl (configuration not stated) [Chlordane]
Conditions | hypodiploid nuclei frequency, [2] [%] | micronucleus frequency, [1] [%]
concentration: 4.5 (µM), S9 metabolic activation: with S9, exposure time: 3-4 hours | 0.08 | 1.42
concentration: 4.5 (µM), S9 metabolic activation: without S9, exposure time: 24 hours | 0.64 | 2.04
concentration: 5.63 (µM), S9 metabolic activation: with S9, exposure time: 3-4 hours | 0.24 | 1.22
concentration: 5.63 (µM), S9 metabolic activation: without S9, exposure time: 24 hours | 0.54 | 2.16
concentration: 7.04 (µM), S9 metabolic activation: with S9, exposure time: 3-4 hours | 0.2 | 1.44
concentration: 7.04 (µM), S9 metabolic activation: without S9, exposure time: 24 hours | 0.8 | 1.94
concentration: 8.8 (µM), S9 metabolic activation: with S9, exposure time: 3-4 hours | 0.16 | 1.24
concentration: 8.8 (µM), S9 metabolic activation: without S9, exposure time: 24 hours | 0.7 | 1.54
concentration: 11 (µM), S9 metabolic activation: with S9, exposure time: 3-4 hours | 0.26 | 1.64
concentration: 11 (µM), S9 metabolic activation: without S9, exposure time: 24 hours | 0.8 | 2.1
concentration: 13.7 (µM), S9 metabolic activation: with S9, exposure time: 3-4 hours | 0.2 | 1.44
concentration: 13.7 (µM), S9 metabolic activation: without S9, exposure time: 24 hours | 1.08 | 1.9
concentration: 17.2 (µM), S9 metabolic activation: with S9, exposure time: 3-4 hours | 0.23 | 1.1
concentration: 17.2 (µM), S9 metabolic activation: without S9, exposure time: 24 hours | 0.82 | 2.06
concentration: 21.5 (µM), S9 metabolic activation: with S9, exposure time: 3-4 hours | 0.54 | 2.06
concentration: 21.5 (µM), S9 metabolic activation: without S9, exposure time: 24 hours | 0.8 | 2.38
concentration: 26.8 (µM), S9 metabolic activation: with S9, exposure time: 3-4 hours | – | 1.14
concentration: 26.8 (µM), S9 metabolic activation: without S9, exposure time: 24 hours | – | 1.92
concentration: 33.6 (µM), S9 metabolic activation: with S9, exposure time: 3-4 hours | – | 1.9
concentration: 33.6 (µM), S9 metabolic activation: without S9, exposure time: 24 hours | – | 1.9
concentration: 41.9 (µM), S9 metabolic activation: with S9, exposure time: 3-4 hours | – | 1.14
concentration: 41.9 (µM), S9 metabolic activation: without S9, exposure time: 24 hours | – | 1.92
concentration: 52.4 (µM), S9 metabolic activation: with S9, exposure time: 3-4 hours | – | 0.86
concentration: 52.4 (µM), S9 metabolic activation: without S9, exposure time: 24 hours | – | 2.4
concentration: 65.5 (µM), S9 metabolic activation: with S9, exposure time: 3-4 hours | – | 1.1
concentration: 65.5 (µM), S9 metabolic activation: without S9, exposure time: 24 hours | – | 2.34
concentration: 81.9 (µM), S9 metabolic activation: with S9, exposure time: 3-4 hours | – | 0.93
concentration: 81.9 (µM), S9 metabolic activation: without S9, exposure time: 24 hours | – | 2.22
concentration: 102 (µM), S9 metabolic activation: with S9, exposure time: 3-4 hours | – | 0.99
concentration: 102 (µM), S9 metabolic activation: without S9, exposure time: 24 hours | – | 2.52
concentration: 128 (µM), S9 metabolic activation: with S9, exposure time: 3-4 hours | – | 1.94
